# Assay results: PubChem BioAssay AID662 (National Center for Advancing Translational Sciences (NCATS), 2007)
# Screen size: about 71,000 compounds; about 1,800 (2.5%) were called active. Inconclusive results, whose numbers are uncertain, are shown with a selection of clear calls. The call rests on the fitted dose curve; in most records, active means well fitted activation curve with a large enough effect in the signal ratio, with a control signal flat (not every such curve was filed as active); inconclusive means small, poorly fitted or top-dose-only effect, or effect the other way, or a change in a side signal; inactive means flat fitted curve, though single readings scatter; the % refers to the signal ratio. A potency beside an inconclusive call is a rough fit, not a confirmed value.
# Test: Cell signaling CRE-BLA (Fsk stim); on activity change, negative = inhibition: % of control where 0% means no effect
# Details: CHO CRE-bla reporter (cAMP response element driving beta-lactamase), forskolin EC10, beta-lactamase ratio
# In short: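 The 460nm/530nm emission ratio after CCF4 loading defined %Activity, from which AC50 values were obtained. CRE-bla CHO cells received compound dilution series together with an EC10 level of NKH 477 for 3 hours at 37 degrees Celsius.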
# [1] = activity change, negative = inhibition: at 38.2 µM (top of the series) unless noted
# Potency means the concentration at half of the fitted maximal effect; tags describe the fitted curve by direction and shape.
compound,measurement,setting,value
Cc1c(-c2ccccc2)nc(N)c(C#N)c1-c1ccco1,Potency,[1],active: 10 µM
COc1ccc(N2C(=O)CSC2c2ccc3c(c2)OCO3)c(OC)c1 (centres undefined),"activity change, negative = inhibition",[1],inconclusive: 13.3%
Cc1nc(NCC2CCCO2)nc2c1C(=O)CC(C)(C)C2 (centres undefined),"activity change, negative = inhibition",[1],inactive
CCOC(=O)C1=C[C@@]2(CC)CCCN3CCc4c(n1c1ccccc41)[C@H]32,"activity change, negative = inhibition",[1],inconclusive: -24%
same,"activity change, negative = inhibition",at 17.1 µM (top of the series),inactive: -5.23%
same,"activity change, negative = inhibition",at 38.2 µM (top of the series),inactive: -8.99%
Cc1cnc(CNc2nc(-c3ccc4c(c3)OCO4)nc3ccccc23)cn1,Potency,[1],"inconclusive: 10 µM [rising, partial curve]"
COCCn1c(=O)c(-c2ccc(OC)cc2)nc2cnc(N3CCOCC3)nc21,Potency,[1],active: 2.51 µM
Cn1cccc1C(=O)N1CCC2(CC1)CN(C(=O)Nc1ccccc1)C2,"activity change, negative = inhibition",[1],inactive
Cn1c(N2CCOCC2)nc(-c2ccccc2)c1-c1ccccc1,Potency,[1],"inconclusive: 10 µM [rising, single point]"
CC(C)NC(=O)c1cc(C(=O)c2cc(Cl)ccc2O)coc1=N,"activity change, negative = inhibition",[1],inactive
CC(C)C(NC(=O)C1CCCCC1)C(=O)NC1CCN(Cc2ccccc2)CC1 (centres undefined),"activity change, negative = inhibition",[1],inconclusive: 3.31%
CC1(C)C(c2ccc(Cl)cc2)=[N+]([O-])C2(CCCC/C2=N\O)N1O (centres undefined),"activity change, negative = inhibition",[1],inconclusive: -16.3% [at 7.6 µM]
COc1ccc(NC(=O)CN(c2ccc(C)cc2)S(=O)(=O)c2c(C)nn(C)c2C)cc1OC,"activity change, negative = inhibition",[1],inactive
C=CCOC(=O)C1=C(C)NC(SC)=C(C#N)C1c1ccc(OCC)cc1 (centres undefined),"activity change, negative = inhibition",[1],inconclusive: -9.13%
O=C(c1cccc(S(=O)(=O)N2CCCC2)c1)c1cccc(S(=O)(=O)N2CCCC2)c1,Potency,[1],"inconclusive: 0.0631 µM [rising, full curve, poor fit]"
Cc1cc(C)n(-c2ccc(C(=O)Nc3ccccc3N3CCOCC3)cc2)n1,"activity change, negative = inhibition",[1],inconclusive: 9%
Cc1cc(C)n(CCc2nc3c4ccccc4nc(SCc4ccc(C#N)cc4)n3n2)n1,"activity change, negative = inhibition",[1],inconclusive: -5.66%
CC1CCC(C(=O)O)([C@H](Br)C(=O)O)CC1 (some centres undefined),"activity change, negative = inhibition",[1],inconclusive: -14.4% [at 7.6 µM]
O=C(CCCN1CCC(O)(c2ccc(Cl)cc2)CC1)c1ccc(F)cc1,Potency,[1],"inconclusive: 12.6 µM [falling, partial curve, poor fit]"
COc1ccc(C(c2nnnn2C2CCCCC2)N2CCN(c3ccc(OC)cc3)CC2)cc1 (centres undefined),Potency,[1],active: 7.94 µM
CC(=O)Nc1ccc(OCC(O)CN2CCN(c3cc(Cl)ccc3C)CC2)cc1 (centres undefined),"activity change, negative = inhibition",[1],inconclusive: -14.3%
Cc1ccc2cc(CCNC(=O)c3ccco3)c(=O)[nH]c2c1C,"activity change, negative = inhibition",[1],inconclusive: 18.6%
COc1ccc(-c2noc(COc3ccc(C)c(C)c3)n2)cc1OC,Potency,[1],"inconclusive: 3.98 µM [rising, partial curve]"
Cc1cc(C)n(-c2nc3ccccc3c(=O)n2OCC(=O)Nc2c(C)cccc2C)n1,Potency,[1],"inconclusive: 10 µM [falling, single point]"
Cc1nn(Cc2ccc(Cl)cc2)c(C)c1NC(=O)C1CC=CCC1C(=O)O (centres undefined),"activity change, negative = inhibition",[1],inconclusive: 7.49%
CCOC(=O)Cn1cnc2c(nnn2-c2ccc(OC)cc2)c1=O,Potency,[1],"inconclusive: 25.1 µM [rising, single point]"
Cn1c(=O)c2[nH]c([C@@H]3CC(=O)C[C@H](c4nc5c([nH]4)c(=O)n(C)c(=O)n5C)N3)nc2n(C)c1=O,"activity change, negative = inhibition",[1],inactive: 0.823% [at 7.6 µM]
CCOC(=O)CSc1nc(N)c(C#N)c(-c2cccs2)c1C#N,Potency,[1],"inconclusive: 12.6 µM [rising, partial curve]"
CCOC(=O)N1CCC(NC(=O)c2cc(C(=O)Nc3ccc(OC)c(OC)c3)ccc2CO)CC1,Potency,[1],"inconclusive: 0.02 µM [falling, full curve, poor fit]"
CCn1nnnc1SCC(=O)c1cc(OC)ccc1OC,"activity change, negative = inhibition",[1],inactive
O=C1C(=O)N(CCCN2CCOCC2)C(c2ccccn2)/C1=C(\O)c1ccc2c(c1)OCCO2 (centres undefined),"activity change, negative = inhibition",[1],inconclusive: 17.3%
O=C(Nc1nnc(CC(=O)N2CCCC2)s1)c1cnccn1,"activity change, negative = inhibition",[1],inactive
CCCCC(=O)Nc1nn(C)c2nc3c(C)cccc3cc12,Potency,[1],"inconclusive: 12.6 µM [rising, partial curve]"
Brc1cccc(-c2nnc3n2CCC3)c1,Potency,[1],"inconclusive: 5.01 µM [falling, single point]"
COC(=O)[C@@H](N)Cc1ccc(O)c(O)c1,"activity change, negative = inhibition",[1],inactive
O=C1c2ccccc2C(=O)c2c(NC3CCCCC3)ccc(Nc3ccc(S(=O)(=O)O)cc3)c21,"activity change, negative = inhibition",[1],inactive: -1.95% [at 7.6 µM]
COc1ccc(C(=O)N2CCC3(CC2)CN(c2ccc(-c4ccccc4)cc2)C3)cc1,"activity change, negative = inhibition",[1],inactive
CN(C)CCN1C(=O)C(=O)/C(=C(/O)c2ccc(S(=O)(=O)N3CCOCC3)cc2)C1c1ccccc1 (centres undefined),Potency,[1],"inconclusive: 0.0251 µM [rising, full curve, poor fit]"
COCC(=O)N1CCC2(CCN(Cc3ccccc3OC)CC2)CC1,"activity change, negative = inhibition",[1],inactive
CC(C)Sc1nc2c(c(=O)[nH]c(=O)n2C)n1Cc1ccc(Cl)cc1,Potency,[1],"inconclusive: 12.6 µM [rising, partial curve]"
COc1ccc(-n2c(Cc3cccn3C)nnc2SCC(=O)Nc2ccc3c(c2)OCCO3)cc1,"activity change, negative = inhibition",[1],inconclusive: -10.7%
CCCn1c(=NC(=O)c2ccco2)c(C(=O)OCC)cc2c(=O)n3ccccc3nc21,Potency,[1],active: 7.94 µM
CC(=O)c1cccc(NC(=O)c2cc(-c3ccc(C)cc3)on2)c1,"activity change, negative = inhibition",[1],inactive
Cc1cc(C(=O)CSc2n[nH]c(N)n2)c(C)n1-c1cccc(F)c1,"activity change, negative = inhibition",[1],inconclusive: 13.7%
COc1ccc(N(CC(=O)NC2CCCCCC2)S(=O)(=O)c2c(C)nn(C)c2C)cc1,"activity change, negative = inhibition",[1],inactive
COc1cccc(NC(=O)CSc2nnc(-c3cc(C)n(-c4ccccc4)c3C)o2)c1,"activity change, negative = inhibition",[1],inconclusive: 16%
O=C(COc1cccc2cccnc12)Nc1nccs1,"activity change, negative = inhibition",[1],inactive
O=C(NCC(c1cccnc1)N1CCN(c2ccccc2)CC1)OCc1ccccc1 (centres undefined),Potency,[1],"inconclusive: 10 µM [falling, partial curve]"
c1ccc(-c2nc(N3CCOCC3)c3ccccc3n2)nc1,Potency,[1],"inconclusive: 10 µM [rising, single point]"
CCOC(=O)CCc1c(C)c2ccc(OCC(=O)OC(C)C)cc2oc1=O,Potency,[1],"inconclusive: 10 µM [rising, single point]"
COc1ccc(-c2noc(CN3CCN(c4ccccc4F)CC3)n2)cc1OC,"activity change, negative = inhibition",[1],inactive
CCOC(=O)c1ccc(Oc2nc(NC)nc(SC)n2)cc1,"activity change, negative = inhibition",[1],inactive
O=C(c1ccco1)N1CCN(c2c(-c3ccccc3)c3cc(Cl)ccc3[nH]c2=O)CC1,"activity change, negative = inhibition",[1],inconclusive: 25.4% [cytotoxic]
Cn1c(=O)n(Cc2ccc(F)cc2)c(=O)c2c1nc1n2CCCN1Cc1ccccc1,"activity change, negative = inhibition",[1],inactive
COc1cccc(-c2cc(C(=O)NCc3ccco3)no2)c1,"activity change, negative = inhibition",[1],inconclusive: -0.604%
O=C(Oc1cc(=O)oc2ccccc12)c1ccco1,Potency,[1],"inconclusive: 6.31 µM [rising, partial curve]"
Cc1ccccc1-n1c(-c2ccncc2)n[nH]c1=S,"activity change, negative = inhibition",[1],inconclusive: -7.14%
CC(C)C(=O)Nc1cc(=O)[nH]c2ncnn12,"activity change, negative = inhibition",[1],inactive
CCn1nc(NC(=O)c2ccncc2)c2cc3ccccc3nc21,Potency,[1],active: 6.31 µM
Cn1c(C(=O)N2CCCc3ccccc32)cc2c(=O)n3ccccc3nc21,Potency,[1],active: 1.58 µM
Oc1ccc([C@@H]2CNCCc3c2cc(O)c(O)c3Cl)cc1,"activity change, negative = inhibition",[1],inconclusive: -16%
same,"activity change, negative = inhibition",at 38.2 µM (top of the series),inactive: -2.01%
N#Cc1nc(COc2ccccc2)oc1N1CCC(Cc2ccccc2)CC1,"activity change, negative = inhibition",[1],inconclusive: 21.3%
CC(C)n1c(SCC(N)=O)nc2c1c(=O)n(C)c(=O)n2C,"activity change, negative = inhibition",[1],inconclusive: 25.5%
COC(=O)C1=C(C)OC(N)=C(C#N)C1c1cc(OC)c(OCC(N)=O)cc1Cl (centres undefined),Potency,[1],"inconclusive: 0.1 µM [falling, single point]"
COc1ccc2[nH]c(=O)c(CN(CCCN(C)C)C(=O)Nc3ccccc3)cc2c1,"activity change, negative = inhibition",[1],inactive
CN(C)Cc1ccccc1-c1nccc(N(C)Cc2ccco2)n1,"activity change, negative = inhibition",[1],inactive
Cn1c(SCCSc2nnc(-c3ccccc3)n2C)nnc1-c1ccccc1,"activity change, negative = inhibition",[1],inactive
COc1ccc2[nH]c(C)c(CCN3C(=O)C4CC=CCC4C3=O)c2c1 (centres undefined),"activity change, negative = inhibition",[1],inactive
Nc1c(S(=O)(=O)c2cccs2)c2nc3ccccc3nc2n1CC1CCCO1 (centres undefined),"activity change, negative = inhibition",[1],inactive
NC(=O)NC(=O)Nc1ccccc1Cl,"activity change, negative = inhibition",[1],inconclusive: -12.2%
Cc1nc2ccc3nc(NC(=O)c4ccco4)sc3c2s1,Potency,[1],"inconclusive: 5.01 µM [rising, partial curve]"
O=C(N[C@@H](CO)[C@@H](O)c1ccc([N+](=O)[O-])cc1)C(Cl)Cl,"activity change, negative = inhibition",[1],inactive
Cc1occc1-c1nnc(SCC(=O)Nc2ccccc2N2CCCCC2)n1C,"activity change, negative = inhibition",[1],inactive
CCCN1C(=O)SC(CC(=O)Nc2ccc(Br)cc2)C1=O (centres undefined),"activity change, negative = inhibition",[1],inconclusive: 19.2%
CCOC(=O)C(CO)(NC(C)=O)C(=O)OCC,Potency,[1],"inconclusive: 3.98 µM [falling, single point]"
COc1ccc(-n2c(SCC(=O)N3CCCCC3C)nnc2-c2cccnc2)cc1 (centres undefined),"activity change, negative = inhibition",[1],inactive
Cc1ccc2nc(NC(=O)C3CCN(S(=O)(=O)c4cccs4)CC3)sc2c1,"activity change, negative = inhibition",[1],inconclusive: -15.6%
COc1cccc2c1nc(C)c1cc(C)oc12,Potency,[1],"inconclusive: 10 µM [rising, partial curve]"
C1CCc2nnc(-c3nnc4n3CCCCC4)n2CC1,"activity change, negative = inhibition",[1],inactive
COC(=O)N1CCC2(CC1)CN(c1ccncc1)C2,"activity change, negative = inhibition",[1],inactive
COc1ccc(-c2oc3ncnc(NCCCN4CCOCC4)c3c2-c2ccc(OC)cc2)cc1,Potency,[1],"inconclusive: 3.98 µM [rising, partial curve]"
Cc1ccccc1NC(=O)CSc1nc(N)c(C#N)c(-c2cccs2)c1C#N,Potency,[1],"inconclusive: 5.01 µM [rising, partial curve]"
